# Experimental data as given in PubChem BioAssay AID1347073 (National Center for Advancing Translational Sciences (NCATS), 2019).
# In all, about 45,000 compounds went through this assay and about 200 (0.44%) were called active. Another 7% or so got no clear call; they are omitted. Calls come from the whole dose curve; as a rule, active = well fitted activation curve with a large enough effect; inconclusive = small, poorly fitted or top-dose-only effect; inactive = no such curve, though single readings can be large or run the other way. Some of the results follow.
# Experiment: qHTS of TDP-43 Inhibitors: NCGC Sytravon Library Screen; note: 0% is about no effect; nearly all actives have a fitted effect of over 55% in size
# Details: yeast TDP-43 toxicity rescue, BacTiter-Glo growth, 24 h; series mostly up to 46.1 µM; growth rescue (activation): at the top concentration
# How it was run: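 TDP-43-expressing yeast, pregrown in raffinose, seeded at OD600 0.02 in galactose medium with compound for 24 hr at 30 deg C. Growth read by BacTiter-Glo luminescence, so rescue of toxicity appears as activation.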
row,Compound,growth rescue (activation)
1,CCCCC(C(=O)O)C(C)CC(=O)Nc1ccn(-c2ccccc2)n1 (configuration not stated),inactive: 31.4%
2,CCSc1nnc(NC(=O)C2CC(=O)N(Cc3ccc(C)cc3)C2)s1 (configuration not stated),inactive: -0.728%
3,COc1ccc(C(=O)Nc2ccccc2-c2nnn(CC(N)=O)n2)cc1,inactive: 0.865%
4,CC(=O)C(Cc1ccccc1)NC(=O)CN1CCN(Cc2ccccc2)CC1 (configuration not stated),inactive: 12.9%
5,NS(=O)(=O)c1ccc(NC(=S)Nc2ccc(OCc3ccccc3)cc2)cc1,inactive: -7.39%
6,Nc1ccc(-c2nc3ccc(C(=O)O)cc3s2)cc1,inactive: 19.2%
7,Cc1ccc(NC(=O)C(OC(=O)c2ccc(F)cc2)c2ccccc2)cc1Cl (configuration not stated),inactive: -9.79%
8,CCCCN(C(=O)CCC(=O)Nc1cc(C)on1)C(C(=O)NC(C)(C)C)c1ccccc1Cl (configuration not stated),inactive: 13.9%
9,COC(=O)c1sc(NC(=O)c2ccc3c(c2)OCO3)c(C#N)c1C,inactive: 0.0062%
10,Cc1cccnc1CNC(=O)C1(C)CCCN1CC(C)C (configuration not stated),inactive: -4.95%
11,COc1ccc([N+](=O)[O-])cc1NC(=O)c1cn(-c2ccc(Cl)cc2)c(=O)c2ccccc12,inactive: -6.62%
12,COc1ccc(S(=O)(=O)NCC(c2cccnc2)N2CCN(c3ccccc3OC)CC2)cc1C (configuration not stated),inactive: -3.68%
13,O=C1/C(=C\c2c(NCCOCCO)nc3ccccn3c2=O)SC(=S)N1Cc1ccco1,inactive: 11.8%
14,C[C@]12CCC(=O)C=C1CCC1C2CC[C@@]2(C)C1CCC21OCCO1 (some centres not stated),inactive: 19%
15,CC(=O)c1ccc(S(=O)(=O)N(CCCO)Cc2cc3cc4c(cc3[nH]c2=O)OCCO4)cc1,inactive: -20.9%
16,COc1ccc(/C=N/NC(=O)c2sccc2OCc2ccc(F)cc2)cc1OC,inactive: 11.8%
17,CCOC(=O)COn1c(=O)c(-c2ccc(OC)cc2)[n+]([O-])c2ccccc21,inactive: 0.0965%
18,CCOC(=O)C1=C(c2ccccc2)OC(N)=C(C#N)C1c1ccc(Br)s1 (configuration not stated),inactive: -2.53%
19,Cc1ccc(-c2csc(NC(=O)c3ccc(Br)cc3)c2C(=O)O)cc1,inactive: -38.2%
20,COc1ccc(N2CCOCC2)c(NC(=O)COc2cccc(C)c2)c1,inactive: 19.5%
21,COc1ccccc1N(CC(=O)NCc1ccc(F)cc1)C(=O)CCC(=O)Nc1nccs1,inactive: -12.1%
22,Cc1ccc(-c2ccc(/C=N/n3cnnc3)o2)cc1,inactive: -5.76%
23,COc1ccccc1C(=O)Nc1ccc(NC(=O)C2CCCCC2)nc1,inactive: -0.124%

row,Compound,growth rescue (activation)
1,CCN1C(=O)c2cccc3c(S(=O)(=O)Nc4ccccc4O)ccc1c23,inactive: 10.8%
2,CC1CCCCC12NC(=O)N(CC(=O)OCC(=O)Nc1ccc(F)cc1[N+](=O)[O-])C2=O (configuration not stated),inactive: -1.05%
3,CCOc1cc(C(C(=O)NCC2CCCO2)N(C(=O)Cn2nnc3ccccc32)c2ccccc2C)ccc1O (configuration not stated),inactive: 5.04%
4,CN1CCN(c2oc(/C=C/c3ccc(F)cc3)nc2C#N)CC1,inactive: 1.58%
5,Cc1nn(Cc2ccccc2)c(C)c1NC(=O)CSc1nc2c(c(C(F)(F)F)n1)CCc1ccccc1-2,inactive: 16.6%
6,COc1ccc(C2=NO[C@@H]3C(=O)N(Cc4ccccc4)C(=O)[C@H]23)c(OC)c1,inactive: 27.9%
7,CC(C)Cn1c(N)c(C(=O)CSc2ncnc3sc4c(c23)CCCC4)c(=O)n(C)c1=O,inactive: 14.8%
8,CCn1nc(NC(C)=O)c2cc3ccc(C)cc3nc21,inactive: -3.2%
9,NC(=O)C1CCN(C(=O)c2cccc(CN3C(=O)c4ccccc4C3=O)c2)CC1,inactive: -0.0227%
10,COc1ccccc1C/C(N)=N/O,inactive: 11.1%
11,CC1(C(=O)Nc2ccc(S(=O)(=O)Nc3ncccn3)cc2)CCCC1,inactive: 7.19%
12,CCCOc1ccc(F)cc1-c1cc(C(=O)NCCOC)[nH]n1,inactive: 13.4%
13,CCOc1ccccc1NC(=O)CN1CCC(C(=O)c2ccc(OC)cc2)CC1,inactive: 5.48%
14,COC(=O)c1ccc(C(=O)OC)c(NC(=O)CN(C)Cc2ccccc2)c1,inactive: 4.02%
15,COCCNC(=O)C1(C)CCCN(Cc2ccc(-c3ccccc3)o2)C1 (configuration not stated),inactive: 9.58%
16,O=C(CCNc1n[nH]c(=O)[nH]c1=O)N/N=C/c1ccc(C(F)(F)F)cc1,inactive: -0.253%
17,CCc1ccccc1NC(=O)c1ccc(NS(C)(=O)=O)cc1,inactive: -8.01%
18,COc1ccc(C(C(=O)NCC2CCCO2)N(C(=O)Cn2nnc3ccccc32)c2ccc(NC(C)=O)cc2)c(OC)c1 (configuration not stated),inactive: 3.1%
19,CS(=O)(=O)NN1C(=O)c2ccccc2NC12CCCC2,inactive: 5.25%
20,Brc1ccc(C=Nc2ccc(Nc3ccccc3)cc2)s1,inactive: 2.49%
21,O=C(Nc1cc(=O)[nH]c2nc(-c3ccc(Cl)cc3)nn12)c1ccccc1,inactive: 29.7%
22,CCN(CC)S(=O)(=O)c1cc(NC(=O)COc2ccc(C#N)cc2OC)ccc1C,inactive: 26.4%
23,COc1ccc(C(=O)NC(C)CCn2cccn2)cc1OC1CCN(C(C)C)CC1 (configuration not stated),inactive: 17.8%

row,Compound,growth rescue (activation)
1,OC(COC(c1ccccc1)c1ccccc1)CN1CCN(c2ccccn2)CC1 (configuration not stated),inactive: -2.95%
2,NC(=O)C1CCCN(C(=O)CCCNC(=O)c2ccc(Cl)cc2)C1 (configuration not stated),inactive: -3.02%
3,CCc1ccc(N/C(N)=N/c2nc(CSc3ccccn3)cc(=O)[nH]2)cc1,inactive: 10.8%
4,COc1cc(CCC(=O)OCC(=O)Nc2ccc(Br)cc2F)cc(OC)c1OC,inactive: -30.3%
5,CCN(C1CCS(=O)(=O)C1)S(=O)(=O)c1cccc([N+](=O)[O-])c1 (configuration not stated),inactive: -9.86%
6,COc1ccc(S(=O)(=O)N2CCOCC2)cc1NC(=O)Cc1ccc(Cl)c(Cl)c1,inactive: 16.4%
7,O=C(NCCc1ccccn1)c1cc(-c2ccc(Cl)cc2)nc2ccccc12,inactive: 16.2%
8,O=C(COC(=O)c1ccco1)Nc1cccc(Br)c1,inactive: 9.63%
9,CCOc1ccccc1NC(=O)COC(=O)c1ccc(S(=O)(=O)N2CCCC2)cc1,inactive: 21.2%
10,O=C(N/N=C/c1ccc(O)cc1)c1cccc(C(F)(F)F)c1,inactive: 18.5%
11,COc1ccc(S(=O)(=O)N(C)C)cc1NC(=O)Cc1c[nH]c2ccccc12,inactive: -21%
12,CC(Cc1ccccc1)NC(=O)c1cc2ccccc2o1 (configuration not stated),inactive: 6.07%
13,CCCCOc1ccc(C(=O)N2CCNC(=O)C2)cc1,inactive: 10.3%
14,NCCCCCC(=O)Nc1ccncc1,inactive: 0.35%
15,S=C(NCc1ccco1)N1CCN(c2ccccc2Cl)CC1,inactive: 30.5%
16,CC(C)(C)NCc1cc(Br)ccc1OCc1cccs1,inactive: 6.23%
17,CN(NS(=O)(=O)c1ccc(Cl)cc1)c1nc(C(F)(F)F)nc2ccccc12,inactive: -16.6%
18,COc1cccc(NC(=O)CC(=O)c2ccccc2)c1,inactive: 20.4%
19,O=C1N=c2ccccc2=C1c1sc(NS(=O)(=O)c2ccccc2)nc1O,inactive: -8.34%
20,CC(C)(C)c1ccc(S(=O)(=O)N(CCCN2CCOCC2)Cc2cccs2)cc1,inactive: -15.5%
21,O=C(O)C1CC(O)CN1S(=O)(=O)c1cccs1 (configuration not stated),inactive: 17%
